Experimental data from the supplement of paper PMC8728848.
The other results are listed elsewhere or left out.

Tests used:
Experiment in all cases: glycan array binding signal (z-score within array); higher = stronger binding
Conditions in all cases: glycan notation: IUPAC condensed, linker removed
[1] = target: Man(a1-3)[Man(a1-6)]Man(a1-6)[Man(a1-3)]Man
Procedure, shortened: (§1)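 The Consortium for Functional Glycomics database supplied 3228 glycan arrays, of which those lacking an available protein sequence were dropped. The binding signal, a within-array Z-score, was averaged across arrays of the same protein sequence and across linkers. Negative scores can be read as non-binding.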

[2] = target: Man(a1-3)[Man(a1-6)]Man(a1-6)[Man(a1-3)]Man(b1-4)GlcNAc(b1-4)GlcNAc
Procedure, shortened: as §1

[3] = target: Man(a1-3)[Man(a1-6)]Man(b1-4)GlcNAc(b1-4)GlcNAc
Procedure, shortened: as §1

Man(a1-6)Man = target: Man(a1-6)Man
Procedure, shortened: as §1

Man(b1-4)GlcNAc = target: Man(b1-4)GlcNAc
Procedure, shortened: as §1

Neu5Ac(a2-3)Gal = target: Neu5Ac(a2-3)Gal
Procedure, shortened: as §1

[4] = target: Neu5Ac(a2-3)Gal(b1-3)GalNAc
Procedure, shortened: as §1

[5] = target: Neu5Ac(a2-3)Gal(b1-3)GalNAc(b1-3)Gal(a1-4)Gal(b1-4)Glc
Procedure, shortened: as §1

[6] = target: Neu5Ac(a2-3)Gal(b1-3)GalNAc(b1-3)Gal(b1-4)GlcNAc
Procedure, shortened: as §1

[7] = target: Neu5Ac(a2-3)Gal(b1-3)GalNAc(b1-4)[Neu5Ac(a2-3)]Gal(b1-4)Glc
Procedure, shortened: as §1

[8] = target: Neu5Ac(a2-3)Gal(b1-3)GalNAc6S
Procedure, shortened: as §1

[9] = target: Neu5Ac(a2-3)Gal(b1-3)GlcNAc
Procedure, shortened: as §1

[10] = target: Neu5Ac(a2-3)Gal(b1-3)GlcNAc(b1-3)Gal(b1-3)GlcNAc
Procedure, shortened: as §1

[11] = target: Neu5Ac(a2-3)Gal(b1-3)GlcNAc6S
Procedure, shortened: as §1

[12] = target: Neu5Ac(a2-3)Gal(b1-3)[Fuc(a1-4)]GlcNAc
Procedure, shortened: as §1

[13] = target: Neu5Ac(a2-3)Gal(b1-3)[Fuc(a1-4)]GlcNAc(b1-3)Gal(b1-4)[Fuc(a1-3)]GlcNAc
Procedure, shortened: as §1

[14] = target: Neu5Ac(a2-3)Gal(b1-3)[Neu5Ac(a2-3)Gal(b1-4)]GlcNAc
Procedure, shortened: as §1

[15] = target: Neu5Ac(a2-3)Gal(b1-3)[Neu5Ac(a2-6)]GalNAc
Procedure, shortened: as §1

Neu5Ac(a2-3)Gal(b1-4)Glc = target: Neu5Ac(a2-3)Gal(b1-4)Glc
Procedure, shortened: as §1

[16] = target: Neu5Ac(a2-3)Gal(b1-4)GlcNAc
Procedure, shortened: as §1

[17] = target: Neu5Ac(a2-3)Gal(b1-4)GlcNAc(b1-2)Man(a1-3)[GlcNAc(b1-2)Man(b1-4)GlcNAc(b1-2)Man(a1-6)]Man(b1-4)GlcNAc(b1-4)GlcNAc
Procedure, shortened: as §1

[18] = target: Neu5Ac(a2-3)Gal(b1-4)GlcNAc(b1-2)Man(a1-3)[Neu5Ac(a2-6)Gal(b1-4)GlcNAc(b1-2)Man(a1-6)]Man(b1-4)GlcNAc(b1-4)GlcNAc
Procedure, shortened: as §1

[19] = target: Neu5Ac(a2-3)Gal(b1-4)GlcNAc(b1-3)Gal(b1-3)GlcNAc
Procedure, shortened: as §1

[20] = target: Neu5Ac(a2-3)Gal(b1-4)GlcNAc(b1-3)Gal(b1-4)GlcNAc
Procedure, shortened: as §1

[21] = target: Neu5Ac(a2-3)Gal(b1-4)GlcNAc(b1-3)Gal(b1-4)GlcNAc(b1-3)Gal(b1-4)GlcNAc
Procedure, shortened: as §1

[22] = target: Neu5Ac(a2-3)Gal(b1-4)GlcNAc(b1-3)Gal(b1-4)[Fuc(a1-3)]GlcNAc
Procedure, shortened: as §1

[23] = target: Neu5Ac(a2-3)Gal(b1-4)GlcNAc(b1-6)[Gal(b1-3)]GalNAc
Procedure, shortened: as §1

[24] = target: Neu5Ac(a2-3)Gal(b1-4)GlcNAc(b1-6)[Neu5Ac(a2-3)Gal(b1-3)]GalNAc
Procedure, shortened: as §1

[25] = target: Neu5Ac(a2-3)Gal(b1-4)GlcNAc6S
Procedure, shortened: as §1

[26] = target: Neu5Ac(a2-3)Gal(b1-4)[Fuc(a1-3)]GlcNAc
Procedure, shortened: as §1

[27] = target: Neu5Ac(a2-3)Gal(b1-4)[Fuc(a1-3)]GlcNAc(b1-3)Gal
Procedure, shortened: as §1

[28] = target: Neu5Ac(a2-3)Gal(b1-4)[Fuc(a1-3)]GlcNAc(b1-3)Gal(b1-4)GlcNAc
Procedure, shortened: as §1

[29] = target: Neu5Ac(a2-3)Gal(b1-4)[Fuc(a1-3)]GlcNAc(b1-3)Gal(b1-4)[Fuc(a1-3)]GlcNAc(b1-3)Gal(b1-4)[Fuc(a1-3)]GlcNAc
Procedure, shortened: as §1

[30] = target: Neu5Ac(a2-3)Gal(b1-4)[Fuc(a1-3)]GlcNAc(b1-6)[Gal(b1-3)]GalNAc
Procedure, shortened: as §1

[31] = target: Neu5Ac(a2-3)Gal(b1-4)[Fuc(a1-3)]GlcNAc6S
Procedure, shortened: as §1

[32] = target: Neu5Ac(a2-3)Gal6S(b1-4)GlcNAc
Procedure, shortened: as §1

[33] = target: Neu5Ac(a2-3)Gal6S(b1-4)[Fuc(a1-3)]GlcNAc
Procedure, shortened: as §1

Neu5Ac(a2-3)GalNAc = target: Neu5Ac(a2-3)GalNAc
Procedure, shortened: as §1

[34] = target: Neu5Ac(a2-3)GalNAc(b1-4)GlcNAc
Procedure, shortened: as §1

[35] = target: Neu5Ac(a2-3)[GalNAc(b1-4)]Gal(b1-4)Glc
Procedure, shortened: as §1

[36] = target: Neu5Ac(a2-3)[GalNAc(b1-4)]Gal(b1-4)GlcNAc
Procedure, shortened: as §1

[37] = target: Neu5Ac(a2-3)[Neu5Ac(a2-6)]GalNAc
Procedure, shortened: as §1

Neu5Ac(a2-6)Gal = target: Neu5Ac(a2-6)Gal
Procedure, shortened: as §1

Neu5Ac(a2-6)Gal(b1-4)Glc = target: Neu5Ac(a2-6)Gal(b1-4)Glc
Procedure, shortened: as §1

[38] = target: Neu5Ac(a2-6)Gal(b1-4)GlcNAc
Procedure, shortened: as §1

B1: GH95CBM (Clostridium perfringens) (protein)
chain: EKVAVETSVYLSELEWKSASTGYGEIQKDASCDGNTITLKGENGEKVSYDKGIGTHAHSEIVYSLEGLDYYDYFETFVGVDQEMAGTVASISFEVYLDNEKVFDSGLMTGDTTQKHVKVPIAGKNTLKLVVKDGGDSIGSDHGSFGDAKLT
glycan array binding signal (z-score) [1]: -0.376 | glycan array binding signal (z-score) [2]: -0.302 | glycan array binding signal (z-score) [3]: -0.367 | glycan array binding signal (z-score) (Man(a1-6)Man): -0.314 | glycan array binding signal (z-score) (Man(b1-4)GlcNAc): -0.306 | glycan array binding signal (z-score) (Neu5Ac(a2-3)Gal): -0.311 | glycan array binding signal (z-score) [4]: -0.345 | glycan array binding signal (z-score) [5]: -0.335 | glycan array binding signal (z-score) [6]: -0.326 | glycan array binding signal (z-score) [7]: -0.272 | glycan array binding signal (z-score) [8]: -0.301 | glycan array binding signal (z-score) [9]: -0.342 | glycan array binding signal (z-score) [10]: -0.359 | glycan array binding signal (z-score) [11]: -0.331 | glycan array binding signal (z-score) [12]: -0.358 | glycan array binding signal (z-score) [13]: -0.265 | glycan array binding signal (z-score) [14]: -0.355 | glycan array binding signal (z-score) [15]: -0.314 | glycan array binding signal (z-score) (Neu5Ac(a2-3)Gal(b1-4)Glc): 0.497 | glycan array binding signal (z-score) [16]: -0.196 | glycan array binding signal (z-score) [17]: 0.978 | glycan array binding signal (z-score) [18]: -0.357 | glycan array binding signal (z-score) [19]: -0.358 | glycan array binding signal (z-score) [20]: -0.339 | glycan array binding signal (z-score) [21]: -0.239 | glycan array binding signal (z-score) [22]: -0.329 | glycan array binding signal (z-score) [23]: -0.289 | glycan array binding signal (z-score) [24]: 0.839 | glycan array binding signal (z-score) [25]: -0.351 | glycan array binding signal (z-score) [26]: -0.345 | glycan array binding signal (z-score) [27]: -0.353 | glycan array binding signal (z-score) [28]: -0.063 | glycan array binding signal (z-score) [29]: 1.2 | glycan array binding signal (z-score) [30]: -0.231 | glycan array binding signal (z-score) [31]: 1.31 | glycan array binding signal (z-score) [32]: -0.133 | glycan array binding signal (z-score) [33]: -0.268 | glycan array binding signal (z-score) (Neu5Ac(a2-3)GalNAc): -0.326 | glycan array binding signal (z-score) [34]: -0.362 | glycan array binding signal (z-score) [35]: -0.339 | glycan array binding signal (z-score) [36]: -0.336 | glycan array binding signal (z-score) [37]: -0.358 | glycan array binding signal (z-score) (Neu5Ac(a2-6)Gal): -0.355 | glycan array binding signal (z-score) (Neu5Ac(a2-6)Gal(b1-4)Glc): -0.303 | glycan array binding signal (z-score) [38]: -0.269
